Results from PMC4939424.
These are yes or no findings as the source states them, for the method shown. In cells and extracts the contact can be indirect. Some results given as binding are weak or reduced against the parent protein; the word gives no strength. Tags and fused reporters may be left off the sequences shown.

Target: T1, FLAG-tagged recombinant full-length PI3KAP/XB130 (mouse) (UniProt Q5DTU0)
T1 sequence: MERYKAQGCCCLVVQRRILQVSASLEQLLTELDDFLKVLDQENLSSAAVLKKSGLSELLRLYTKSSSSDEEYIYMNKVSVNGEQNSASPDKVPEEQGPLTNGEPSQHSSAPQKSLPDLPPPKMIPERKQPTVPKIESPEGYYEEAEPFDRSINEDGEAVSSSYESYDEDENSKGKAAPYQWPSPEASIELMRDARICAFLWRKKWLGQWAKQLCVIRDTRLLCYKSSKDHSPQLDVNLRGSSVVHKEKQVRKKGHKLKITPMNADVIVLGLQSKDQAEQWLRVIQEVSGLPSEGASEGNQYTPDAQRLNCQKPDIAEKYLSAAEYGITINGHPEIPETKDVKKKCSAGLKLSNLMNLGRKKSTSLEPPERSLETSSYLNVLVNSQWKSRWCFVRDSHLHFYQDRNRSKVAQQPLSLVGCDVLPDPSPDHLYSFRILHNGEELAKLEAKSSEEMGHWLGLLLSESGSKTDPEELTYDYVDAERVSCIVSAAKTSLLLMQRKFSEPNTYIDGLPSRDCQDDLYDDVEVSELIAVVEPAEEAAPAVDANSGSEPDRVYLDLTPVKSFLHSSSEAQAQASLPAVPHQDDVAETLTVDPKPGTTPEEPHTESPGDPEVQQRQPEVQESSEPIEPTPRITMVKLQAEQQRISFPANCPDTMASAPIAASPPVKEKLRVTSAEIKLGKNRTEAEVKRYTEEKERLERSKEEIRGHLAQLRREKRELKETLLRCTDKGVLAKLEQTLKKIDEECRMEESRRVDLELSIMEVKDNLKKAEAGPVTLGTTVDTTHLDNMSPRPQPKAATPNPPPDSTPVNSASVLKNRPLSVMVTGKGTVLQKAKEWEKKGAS
Test: co-IP; GFP-PI3KAP/XB130 co-transfected with full-length or deletion mutants of FLAG-tagged PI3KAP/XB130 into HEK293T cells; lysates immunoprecipitated with anti-FLAG M2 agarose, immunoblotting

B1: GFP-fused PI3KAP/XB130 (protein, UniProt Q5DTU0-2 1-843)
chain: MERYKAQGCCCLVVQRRILQVSASLEQLLTELDDFLKVLDQENLSSAAVLKKSGLSELLRLYTKSSSSDEEYIYMNKVSVNGEQNSASPDKVPEEQGPLTNGEPSQHSSAPQKSLPDLPPPKMIPERKQPTVPKIESPEGYYEEAEPFDRSINEDGEAVSSSYESYDEDENSKGKAAPYQWPSPEASIELMRDARICAFLWRKKWLGQWAKQLCVIRDTRLLCYKSSKDHSPQLDVNLRGSSVVHKEKQVRKKGHKLKITPMNADVIVLGLQSKDQAEQWLRVIQEVSGLPSEGASEGNQYTPDAQRLNCQKPDIAEKYLSAAEYGITINGHPEIPETKDVKKKCSAGLKLSNLMNLGRKKSTSLEPPERSLETSSYLNVLVNSQWKSRWCFVRDSHLHFYQDRNRSKVAQQPLSLVGCDVLPDPSPDHLYSFRILHNGEELAKLEAKSSEEMGHWLGLLLSESGSKTDPEELTYDYVDAERVSCIVSAAKTSLLLMQRKFSEPNTYIDGLPSRDCQDDLYDDVEVSELIAVVEPAEEAAPAVDANSGSEPDRVYLDLTPVKSFLHSSSEAQAQASLPAVPHQDDVAETLTVDPKPGTTPEEPHTESPGDPEVQQRQPEVQESSEPIEPTPRITMVKLQAEQQRISFPANCPDTMASAPIAASPPVKEKLRVTSAEIKLGKNRTEAEVKRYTEEKERLERSKEEIRGHLAQLRREKRELKETLLRCTDKGVLAKLEQTLKKIDEECRMEESRRVDLELSIMEVKDNLKKAEAGPVTLGTTVDTTHLDNMSPRPQPKAATPNPPPDSTPVNSASVLKNRPLSVMVTGKGTVLQKAKEWEKKGAS
binding: binds
